# The other results are listed elsewhere or left out.
# Key:
# Assay in all cases: glycan array binding signal (z-score within array); higher = stronger binding
# Conditions in all cases: glycan notation: IUPAC condensed, linker removed
# [1] = target: Neu5Ac(a2-3)Gal(b1-3)[Fuc(a1-4)]GlcNAc(b1-3)Gal(b1-4)[Fuc(a1-3)]GlcNAc
# Method in brief: (§1)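 The binding signal is a Z-score computed within each array. Data were drawn from 3228 arrays in the Consortium for Functional Glycomics database, restricted to those with a known protein sequence. Scores were averaged over arrays of the same protein sequence at different concentrations or buffers, and over linkers, and negative values can be taken as non-binding.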
# [2] = target: Neu5Ac(a2-3)Gal(b1-3)[Neu5Ac(a2-3)Gal(b1-4)]GlcNAc
# Method in brief: as §1
# [3] = target: Neu5Ac(a2-3)Gal(b1-3)[Neu5Ac(a2-6)]GalNAc
# Method in brief: as §1
# [4] = target: Neu5Ac(a2-3)Gal(b1-4)Glc
# Method in brief: as §1
# [5] = target: Neu5Ac(a2-3)Gal(b1-4)GlcNAc
# Method in brief: as §1
# [6] = target: Neu5Ac(a2-3)Gal(b1-4)GlcNAc(b1-2)Man(a1-3)[GlcNAc(b1-2)Man(b1-4)GlcNAc(b1-2)Man(a1-6)]Man(b1-4)GlcNAc(b1-4)GlcNAc
# Method in brief: as §1
# [7] = target: Neu5Ac(a2-3)Gal(b1-4)GlcNAc(b1-2)Man(a1-3)[Neu5Ac(a2-6)Gal(b1-4)GlcNAc(b1-2)Man(a1-6)]Man(b1-4)GlcNAc(b1-4)GlcNAc
# Method in brief: as §1
# [8] = target: Neu5Ac(a2-3)Gal(b1-4)GlcNAc(b1-3)Gal(b1-3)GlcNAc
# Method in brief: as §1
# [9] = target: Neu5Ac(a2-3)Gal(b1-4)GlcNAc(b1-3)Gal(b1-4)GlcNAc
# Method in brief: as §1
# [10] = target: Neu5Ac(a2-3)Gal(b1-4)GlcNAc(b1-3)Gal(b1-4)GlcNAc(b1-3)Gal(b1-4)GlcNAc
# Method in brief: as §1
# [11] = target: Neu5Ac(a2-3)Gal(b1-4)GlcNAc(b1-3)Gal(b1-4)[Fuc(a1-3)]GlcNAc
# Method in brief: as §1
# [12] = target: Neu5Ac(a2-3)Gal(b1-4)GlcNAc(b1-6)[Gal(b1-3)]GalNAc
# Method in brief: as §1
# [13] = target: Neu5Ac(a2-3)Gal(b1-4)GlcNAc(b1-6)[Neu5Ac(a2-3)Gal(b1-3)]GalNAc
# Method in brief: as §1
# [14] = target: Neu5Ac(a2-3)Gal(b1-4)GlcNAc6S
# Method in brief: as §1
# [15] = target: Neu5Ac(a2-3)Gal(b1-4)[Fuc(a1-3)]GlcNAc
# Method in brief: as §1
# [16] = target: Neu5Ac(a2-3)Gal(b1-4)[Fuc(a1-3)]GlcNAc(b1-3)Gal
# Method in brief: as §1
# [17] = target: Neu5Ac(a2-3)Gal(b1-4)[Fuc(a1-3)]GlcNAc(b1-3)Gal(b1-4)GlcNAc
# Method in brief: as §1
# [18] = target: Neu5Ac(a2-3)Gal(b1-4)[Fuc(a1-3)]GlcNAc(b1-3)Gal(b1-4)[Fuc(a1-3)]GlcNAc(b1-3)Gal(b1-4)[Fuc(a1-3)]GlcNAc
# Method in brief: as §1
# [19] = target: Neu5Ac(a2-3)Gal(b1-4)[Fuc(a1-3)]GlcNAc(b1-6)[Gal(b1-3)]GalNAc
# Method in brief: as §1
# [20] = target: Neu5Ac(a2-3)Gal(b1-4)[Fuc(a1-3)]GlcNAc6S
# Method in brief: as §1
# [21] = target: Neu5Ac(a2-3)Gal6S(b1-4)GlcNAc
# Method in brief: as §1
# [22] = target: Neu5Ac(a2-3)Gal6S(b1-4)[Fuc(a1-3)]GlcNAc
# Method in brief: as §1
# [23] = target: Neu5Ac(a2-3)GalNAc
# Method in brief: as §1
# [24] = target: Neu5Ac(a2-3)GalNAc(b1-4)GlcNAc
# Method in brief: as §1
# [25] = target: Neu5Ac(a2-3)[GalNAc(b1-4)]Gal(b1-4)Glc
# Method in brief: as §1
# [26] = target: Neu5Ac(a2-3)[GalNAc(b1-4)]Gal(b1-4)GlcNAc
# Method in brief: as §1
# [27] = target: Neu5Ac(a2-3)[Neu5Ac(a2-6)]GalNAc
# Method in brief: as §1
# [28] = target: Neu5Ac(a2-6)Gal
# Method in brief: as §1
# [29] = target: Neu5Ac(a2-6)Gal(b1-4)Glc
# Method in brief: as §1
binder,measurement,setting,value
"P-Selectin (Homo sapiens), P16109 (protein) MANCQIAILYQRFQRVVFGISQLLCFSALISELTNQKEVAAWTYHYSTKAYSWNISRKYCQNRYTDLVAIQNKNEIDYLNKVLPYYSSYYWIGIRKNNKTWTWVGTKKALTNEAENWADNEPNNKRNNEDCVEIYIKSPSAPGKWNDEHCLKKKHALCYTASCQDMSCSKQGECLETIGNYTCSCYPGFYGPECEYVRECGELELPQHVLMNCSHPLGNFSFNSQCSFHCTDGYQVNGPSKLECLASGIWTNKPPQCLAAQCPPLKIPERGNMTCLHSAKAFQHQSSCSFSCEEGFALVGPEVVQCTASGVWTAPAPVCKAVQCQHLEAPSEGTMDCVHPLTAFAYGSSCKFECQPGYRVRGLDMLRCIDSGHWSAPLPTCEAISCEPLESPVHGSMDCSPSLRAFQYDTNCSFRCAEGFMLRGADIVRCDNLGQWTAPAPVCQALQCQDLPVPNEARVNCSHPFGAFRYQSVCSFTCNEGLLLVGASVLQCLATGNWNSVPPECQAIPCTPLLSPQNGTMTCVQPLGSSSYKSTCQFICDEGYSLSGPERLDCTRSGRWTDSPPMCEAIKCPELFAPEQGSLDCSDTRGEFNVGSTCHFSCDNGFKLEGPNNVECTTSGRWSATPPTCKGIASLPTPGLQCPALTTPGQGTMYCRHHPGTFGFNTTCYFGCNAGFTLIGDSTLSCRPSGQWTAVTPACRAVKCSELHVNKPIAMNCSNLWGNFSYGSICSFHCLEGQLLNGSAQTACQENGHWSTTVPTCQAGPLTIQEASTSITAYKSEGESAEFSFPLNLGEESLQGELRWKAEKAPSSQSWITFSLKNQKVSVQKSTSNPKFQLSETLPLTLQIPQVSLQFAGSGNLTLTLDRGILYQEVNLVVMKVTQPDSNTLTCEVMGPTSPKMRLILKQENQEARVSRQEKVIQVQAPEAGVWQCLLSEGEEVKMDSKIQVLSKGLNSGGGSGGGTGGGDLAPQMLRELQETNAALQDVRELLRQQVKEITFLKNTVMECDACGLDRNLPPLAPLGPHPETLVKVKDAEDQLGARVGYIELDLNSGKILESFRPEERFPMMSTFKVLLCGAVLSRIDAGQEQLGRRIHYSQNDLVEYSPVTEKHLTDGMTVRELCSAAITMSDNTAANLLLTTIGGPKELTAFLHNMGDHVTRLDRWEPELNEAIPNDERDTTMPVAMATTLRKLLTGELLTLASRQQLIDWMEADKVAGPLLRSALPAGWFIADKSGAGERGSRGIIAALGPDGKPSRIVVIYTTGSQATMDERNRQIAEIGASLIKHWGPDYKDHDGDYKDHDIDYKDDDDKGPHHHHHH",glycan array binding signal (z-score),[1],3.52
same,glycan array binding signal (z-score),[2],-0.296
same,glycan array binding signal (z-score),[3],0.025
same,glycan array binding signal (z-score),[4],-0.135
same,glycan array binding signal (z-score),[5],-0.207
same,glycan array binding signal (z-score),[6],0.061
same,glycan array binding signal (z-score),[7],-0.191
same,glycan array binding signal (z-score),[8],-0.141
same,glycan array binding signal (z-score),[9],-0.33
same,glycan array binding signal (z-score),[10],-0.133
same,glycan array binding signal (z-score),[11],-0.01
same,glycan array binding signal (z-score),[12],-0.229
same,glycan array binding signal (z-score),[13],-0.276
same,glycan array binding signal (z-score),[14],-0.077
same,glycan array binding signal (z-score),[15],0.764
same,glycan array binding signal (z-score),[16],0.083
same,glycan array binding signal (z-score),[17],0.064
same,glycan array binding signal (z-score),[18],-0.238
same,glycan array binding signal (z-score),[19],0.071
same,glycan array binding signal (z-score),[20],9.93
same,glycan array binding signal (z-score),[21],-0.06
same,glycan array binding signal (z-score),[22],0.141
same,glycan array binding signal (z-score),[23],-0.249
same,glycan array binding signal (z-score),[24],-0.176
same,glycan array binding signal (z-score),[25],-0.07
same,glycan array binding signal (z-score),[26],-0.19
same,glycan array binding signal (z-score),[27],-0.109
same,glycan array binding signal (z-score),[28],1.08
same,glycan array binding signal (z-score),[29],-0.122
